Results reported in PubChem BioAssay AID686970 (National Center for Advancing Translational Sciences (NCATS), 2013).
Screen size: about 360,000 compounds; about 6,000 (1.7%) were called active. This list was built around the results that the source calls inconclusive (neither active nor inactive); the mix of calls is not that of the screen. The call rests on the fitted dose curve; in most records, active means well fitted cell-killing curve with a large enough effect; inconclusive means small, poorly fitted or top-dose-only effect, or effect the other way; inactive means flat fitted curve, though single readings scatter. Potencies of inconclusive entries are left out as doubtful fits.

assay: qHTS for induction of synthetic lethality in tumor cells producing 2HG: qHTS for the HT-1080-NT fibrosarcoma cell line; conditions: HT-1080-NT fibrosarcoma viability, CellTiter-Glo ATP luminescence, 48 h; activity, negative = less viability: at 46.1 µM (top of the series) unless noted;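 further: NT is the 2HG producing partner of a matched IDH1 knockdown line; nearly all actives have a fitted effect of over 55% in size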;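 on activity, negative = less viability: 0% = DMSO-treated cells and -100% = media-only wells without cells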
In short: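 A 48-hour cytotoxicity screen used HT-1080-NT cells plated 2 hours before compound delivery. ATP-based CellTiter-Glo luminescence measured viability, normalized to DMSO and no-cell controls.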
Potency means the concentration at half of the fitted maximal effect; tags describe the fitted curve by direction and shape.

| SMILES | activity, negative = less viability | Potency |
| --- | --- | --- |
| CN1CCN(c2ccccc2/C=N/NC(=O)c2cccnc2)CC1 | inconclusive: 7.64% |  |
| COc1ccc2c(CN(Cc3ccccc3)Cc3ccccc3)cc(=O)oc2c1 | inactive: -18.7% |  |
| O=C(NN=C1CCCC1)C1COc2ccccc2O1 (stereo unspecified) |  | inconclusive [cytotoxic, single point] |
| CC[C@H](C)[C@@H](CN[C@H](C)CNC)NCCC(c1ccccc1)c1ccccc1 |  | inconclusive [cytotoxic, single point] |
| CCOC(=O)Nc1nnc(-c2ccccc2OC)s1 |  | inconclusive [cytotoxic, single point] |
| CC1CCN(Cc2c(C(=O)N/N=C/c3ccc(C(C)(C)C)cc3)nnn2-c2nonc2N)CC1 |  | inconclusive [cytotoxic, single point] |
| COc1cccc(C(NC(C)=O)c2nc(-c3cccc(C#N)c3)cs2)c1 (stereo unspecified) | inactive: -0.288% |  |
| Cc1ccc(C(=O)NCCC2=CCCCC2)cc1S(=O)(=O)N1CCCCC1 |  | inconclusive [cytotoxic, single point] |
| CN(C)c1ccc2nc3ccc(=[N+](C)C)cc-3sc2c1 |  | active: 7.31 µM |
| COc1ccc(-c2cc(=O)n(-c3nc4ccccc4[nH]3)[nH]2)cc1 |  | active: 22.4 µM |
| COc1cc(/C=C/C(=O)N2CCC=CC2=O)cc(OC)c1OC |  | active: 5.8 µM |
| Cc1ccc(NC2=C(C(=O)c3ccccc3)N(C)S(=O)(=O)c3ccccc32)cc1 | inactive: -1.44% |  |
| O=C(N/N=C/c1sc(N2CCOCC2)nc1-c1ccccc1)c1ccccc1Cl | inactive: 15.9% |  |
| COc1ccccc1OCCCCNC(C)(C)C | inactive: -2.58% |  |
| CCCC(=O)N=C1SC2CS(=O)(=O)CC2N1c1ccc(-c2nc3ccc(C)cc3s2)cc1 (stereo unspecified) | inactive: -0.65% |  |
| CCOC(=O)CNC(=O)CSc1ncnc2c1cnn2-c1ccccc1 |  | inconclusive [cytotoxic, single point] |
| CC(C)Oc1ccc(CNC(=O)C2CCCN(S(=O)(=O)N3CCOCC3)C2)cc1 (stereo unspecified) | inactive: -2.3% |  |
| O=S(=O)(c1ccccc1F)N1CCC(Oc2ccc(-n3cnnn3)cc2)CC1 |  | inconclusive [cytotoxic, single point] |
| COc1ccc(NC(=O)N(C)C[C@H]2Oc3c(NC(=O)Nc4ccc(C(F)(F)F)cc4)cccc3C(=O)N([C@H](C)CO)C[C@@H]2C)cc1 |  | inconclusive [cytotoxic, single point] |
| C=CCn1cc(/C=N/Nc2nc3ccccc3[nH]2)c2ccccc21 |  | active: 20.6 µM |
| Cc1cc(C(=O)COC(=O)c2ccc(Cl)c(S(N)(=O)=O)c2)c(C)n1C1CC1 | inactive: 0.353% |  |
| COc1ccc(NC(=O)CN(c2ccccc2F)S(=O)(=O)c2ccc(C)cc2)c(OC)c1 | inconclusive: -2.66% |  |
| O=C(COC(=O)c1cc(S(=O)(=O)N2CCCC2)ccc1O)Nc1ccccc1Br | inactive: -2.17% |  |

| SMILES | activity, negative = less viability | Potency |
| --- | --- | --- |
| O=S(=O)(Nc1ccccc1)c1ccc(-c2cnc(C3CC3)o2)cc1 |  | inconclusive [cytotoxic, partial curve] |
| COc1ccc(-c2nc(-c3ccccn3)no2)cc1 |  | active: 8.2 µM |
| Cc1cc(N/N=C\c2ccccc2)nc(-c2ccccc2O)n1 |  | inconclusive [cytotoxic, single point] |
| O=C1CC(N2CCN(C/C=C/c3ccccc3)CC2)C(=O)N1CCc1ccccc1 (stereo unspecified) |  | inconclusive [cytotoxic, partial curve] |
| Cc1cc([N+](=O)[O-])c2ccccc2c1NS(=O)(=O)c1ccccc1 |  | inconclusive [cytotoxic, single point] |
| CCC1=C(OC(=O)N(CC)CC)N2C(=O)OC(=NCCc3c[nH]c4ccccc34)[C@]2(Cc2ccccc2)[C@H]2C1=CC[C@H]1C(=O)NC(=O)[C@H]12 |  | inconclusive [cytotoxic, single point] |
| O=C(NC(c1ccc(F)cc1)c1ccc2ccccc2n1)C1CCN(CCOc2ccc(Cl)cc2)CC1 (stereo unspecified) |  | inconclusive [cytotoxic, single point] |
| CCOc1ccccc1C(=O)N[C@H](C(=O)OCc1csc(CC(=O)Nc2ccc(C)cc2)n1)C(C)C |  | inconclusive [cytotoxic, partial curve] |
| Cc1nc(-c2ccc(S(=O)(=O)N3CCCN(CCc4ccccc4)CC3)s2)cs1 |  | inconclusive [cytotoxic, single point] |
| COc1ccc(-c2[nH]ncc2N=Nc2cc(C)cc(C)c2)cc1 |  | active: 18.4 µM |
| O=C(N/N=C/c1ccc(O)cc1O)/C(=C/c1ccccc1)CCO |  | inconclusive [cytotoxic, partial curve] |
| Cc1ccc(Nc2nc(-c3sc(C)nc3C)cs2)cc1 |  | active: 1.46 µM |
| CC1(C)C(=O)OC(c2cc(Br)ccc2O)C(C)(C)C1=O (stereo unspecified) |  | inconclusive [cytotoxic, single point] |
| COc1ccc(/C=C2\SC(=S)N(CCC(=O)Nc3ccc(O)cc3)C2=O)cc1 |  | inconclusive [cytotoxic, single point] |
| Cn1cc([N+](=O)[O-])c(C(=O)Nc2ccn(C34CC5CC(CC(C5)C3)C4)n2)n1 |  | inconclusive [cytotoxic, single point] |
| CCCCOc1ccc(C(=O)N/C(=C/C=C/c2ccccc2)C(=O)NCCCO)cc1 | inactive: -16.8% |  |
| COCCCNc1nc2ccccc2nc1NS(=O)(=O)c1ccc(C)cc1C | inactive: -6.13% |  |
| O=C(CSCC(=O)N1CCCCC1)Nc1nc(-c2ccccc2)c(-c2ccccc2)s1 | inactive: -29.2% |  |
| COc1cc(/C=C2\CCC/C(=C\c3ccc(O)c(OC)c3)C2=O)ccc1O |  | active: 18.4 µM |
| Cn1nc(C(C)(C)C)cc1C(=O)NNC(=O)c1ccc(C(F)(F)F)cc1 |  | inconclusive [cytotoxic, single point] |
| N#CC(C#N)=C(Nc1ccc(F)cc1)SCc1cccc(F)c1 |  | inconclusive [cytotoxic, partial curve, poor fit] |
| O=C(Nc1cccc(S(=O)(=O)NC2=NCCC2)c1)C1CCCCC1 | inconclusive: 31% |  |
| O=C(CCl)N1CCCC1c1ccc2c(c1)OCCO2 (stereo unspecified) |  | active: 23.1 µM |
